# Test results reported in the supplement of paper PMC10037445.
# Over roughly 2,900 compounds, “IRF Lucia reporter activity, fold change vs agonist alone” has its median near 0.9; the highest 2% begin near 2.8. Some of the results follow.
# What was measured:
# [1] = tested on: RAW-Dual; experiment: IRF Lucia reporter activity, fold change vs agonist alone; cytotoxicity flag (confluency mask): cytotoxic (confluency <70% of control); higher = enhanced IRF activity
# Method in brief: (§1)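 Reporter activity is given as fold change relative to agonist-alone wells. To measure it, 50 nL of library stock was pin-tooled onto RAW-Dual macrophages (50,000 cells/well, DMEM, 384-well plates), a PRR agonist followed 1 h later, and cells stayed at 37 °C, 5% CO2. Twenty hours on, supernatant was assayed for IRF (QuantiLuc luminescence) and NF-κB (QuantiBlue, 620 nm absorbance), and wells under 70% of agonist-control IncuCyte confluency in both mask sets were marked cytotoxic.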
# [2] = tested on: RAW-Dual; experiment: IRF Lucia reporter activity, fold change vs agonist alone; higher = enhanced IRF activity; conditions: agonist: MPLA (TLR4) […]
# Method in brief: as §1
# [3] = tested on: RAW-Dual; experiment: IRF Lucia reporter activity, fold change vs agonist alone; cytotoxicity flag (confluency mask): not cytotoxic; higher = enhanced IRF activity
# Method in brief: as §1
# [4] = agonist: 3'3'-cGAMP (STING) 10 ug/mL
# [5] = library stock concentration (final ~1000-fold dilution): 10 mM, cytotoxicity flag (confluency mask): not cytotoxic
smiles,measurement,setting,value
Cc1ccc(S(=O)(=O)C=CC#N)cc1 (library stock concentration (final ~1000-fold dilution): 10 mM),IRF Lucia reporter activity,[1]; [4],0.0196
same,IRF Lucia reporter activity,[1]; agonist: LPS (TLR4) 0.1 ug/mL,0.0186
CN1CCC(NC(=O)Nc2ccc(C#N)cc2)CC1c1nc2ccccc2[nH]1 (centres undefined),IRF Lucia reporter activity,[2]; [5],0.958
CN1CCC(NC(=O)Nc2ccc(C#N)cc2)CC1c1nc2ccccc2[nH]1 (centres undefined) (library stock concentration (final ~1000-fold dilution): 10 mM),IRF Lucia reporter activity,[3]; [4],0.792
same,IRF Lucia reporter activity,[3]; agonist: LPS (TLR4) 0.1 ug/mL,0.74
C=C1C(CO)C(O)CC1n1cnc2c(=O)nc(N)[nH]c21 (centres undefined) (library stock concentration (final ~1000-fold dilution): 10 mM),IRF Lucia reporter activity,[3]; [4],0.949
same,IRF Lucia reporter activity,[3]; agonist: LPS (TLR4) 0.1 ug/mL,0.937
C=C1C(CO)C(O)CC1n1cnc2c(=O)nc(N)[nH]c21 (centres undefined),IRF Lucia reporter activity,[2]; [5],1.01
CC1(C(=O)Nc2ccc(F)nc2)CCCN1c1nc(Nc2cc(C3CC3)[nH]n2)c2cccn2n1 (centres undefined),IRF Lucia reporter activity,[2]; [5],0.238
CC1(C(=O)Nc2ccc(F)nc2)CCCN1c1nc(Nc2cc(C3CC3)[nH]n2)c2cccn2n1 (centres undefined) (library stock concentration (final ~1000-fold dilution): 10 mM),IRF Lucia reporter activity,[3]; [4],0.263
same,IRF Lucia reporter activity,[3]; agonist: LPS (TLR4) 0.1 ug/mL,0.365
COS(=O)(=O)[O-].COc1cc(N)cn[n+]1-c1ccccc1,IRF Lucia reporter activity,[2]; [5],1.07
COS(=O)(=O)[O-].COc1cc(N)cn[n+]1-c1ccccc1 (library stock concentration (final ~1000-fold dilution): 10 mM),IRF Lucia reporter activity,[3]; [4],1.03
same,IRF Lucia reporter activity,[3]; agonist: LPS (TLR4) 0.1 ug/mL,0.862
CN1CCC(=C2c3ccccc3CCc3sccc32)CC1.O=C(O)CC(O)C(=O)O (library stock concentration (final ~1000-fold dilution): 10 mM),IRF Lucia reporter activity,[1]; [4],0.494
same,IRF Lucia reporter activity,[1]; agonist: LPS (TLR4) 0.1 ug/mL,1.09
CN1CCC(=C2c3ccccc3CCc3sccc32)CC1.O=C(O)CC(O)C(=O)O,IRF Lucia reporter activity,"[2]; library stock concentration (final ~1000-fold dilution): 10 mM, cytotoxicity flag (confluency mask): cytotoxic (confluency <70% of control)",1.35
O=C1C[C@@H](c2ccc(O[C@@H]3O[C@H](CO)[C@@H](O)[C@H](O)[C@H]3O)cc2)Oc2cc(O)ccc21 (library stock concentration (final ~1000-fold dilution): 10 mM),IRF Lucia reporter activity,[3]; [4],0.0254
same,IRF Lucia reporter activity,[3]; agonist: LPS (TLR4) 0.1 ug/mL,0.0873
Nc1ccn(C2CSC(CO)O2)c(=O)n1 (centres undefined),IRF Lucia reporter activity,[2]; [5],0.954
Nc1ccn(C2CSC(CO)O2)c(=O)n1 (centres undefined) (library stock concentration (final ~1000-fold dilution): 10 mM),IRF Lucia reporter activity,[3]; [4],1.05
same,IRF Lucia reporter activity,[3]; agonist: LPS (TLR4) 0.1 ug/mL,1.09
Cc1c(Cl)cccc1Nc1ccccc1C(=O)O (library stock concentration (final ~1000-fold dilution): 10 mM),IRF Lucia reporter activity,[3]; [4],1
same,IRF Lucia reporter activity,[3]; agonist: LPS (TLR4) 0.1 ug/mL,0.84
Cc1c(Cl)cccc1Nc1ccccc1C(=O)O,IRF Lucia reporter activity,[2]; [5],0.957
Cc1cc2ncc(C(=O)NCC(C)(C)NCC(=O)N3CCCC3C#N)cn2n1 (centres undefined),IRF Lucia reporter activity,[2]; [5],1
Cc1cc2ncc(C(=O)NCC(C)(C)NCC(=O)N3CCCC3C#N)cn2n1 (centres undefined) (library stock concentration (final ~1000-fold dilution): 10 mM),IRF Lucia reporter activity,[3]; [4],1.04
same,IRF Lucia reporter activity,[3]; agonist: LPS (TLR4) 0.1 ug/mL,0.504
Cc1cc(C)c(CN2CCc3c(Cl)cc(-c4c(C)noc4C)c(Cl)c3C2=O)c(=O)[nH]1 (library stock concentration (final ~1000-fold dilution): 10 mM),IRF Lucia reporter activity,[3]; [4],0.847
same,IRF Lucia reporter activity,[3]; agonist: LPS (TLR4) 0.1 ug/mL,0.28
CC(C)(C)CC1NC(C(=O)NC2CCC(O)CC2)C(c2cccc(Cl)c2F)C12C(=O)Nc1cc(Cl)ccc12 (centres undefined) (library stock concentration (final ~1000-fold dilution): 10 mM),IRF Lucia reporter activity,[1]; [4],0.342
same,IRF Lucia reporter activity,[1]; agonist: LPS (TLR4) 0.1 ug/mL,3.33
NC(=O)c1cnc2[nH]ccc2c1NC1C2CC3CC1CC(O)(C3)C2 (centres undefined) (library stock concentration (final ~1000-fold dilution): 10 mM),IRF Lucia reporter activity,[3]; [4],0.00796
same,IRF Lucia reporter activity,[3]; agonist: LPS (TLR4) 0.1 ug/mL,0.0229
O=C1NC(=O)C(c2ccccc2[N+](=O)[O-])=C1Nc1ccc(O)c(Cl)c1 (library stock concentration (final ~1000-fold dilution): 10 mM),IRF Lucia reporter activity,[3]; [4],0.579
same,IRF Lucia reporter activity,[3]; agonist: LPS (TLR4) 0.1 ug/mL,0.463
O=C1NC(=O)C(c2ccccc2[N+](=O)[O-])=C1Nc1ccc(O)c(Cl)c1,IRF Lucia reporter activity,[2]; [5],0.603
O=C1NC(=O)/C(=C/c2ccc3nccc(-c4ccncc4)c3c2)S1,IRF Lucia reporter activity,"[2]; library stock concentration (final ~1000-fold dilution): 2 mM, cytotoxicity flag (confluency mask): not cytotoxic",1.27
O=C1NC(=O)/C(=C/c2ccc3nccc(-c4ccncc4)c3c2)S1 (library stock concentration (final ~1000-fold dilution): 2 mM),IRF Lucia reporter activity,[3]; [4],0.64
same,IRF Lucia reporter activity,[3]; agonist: LPS (TLR4) 0.1 ug/mL,1.1
CCCc1ncc(C[n+]2ccccc2C)c(N)n1,IRF Lucia reporter activity,"[2]; library stock concentration (final ~1000-fold dilution): 10 mM water, cytotoxicity flag (confluency mask): not cytotoxic",1.17
CCCc1ncc(C[n+]2ccccc2C)c(N)n1 (library stock concentration (final ~1000-fold dilution): 10 mM water),IRF Lucia reporter activity,[3]; [4],0.966
same,IRF Lucia reporter activity,[3]; agonist: LPS (TLR4) 0.1 ug/mL,0.958
COCCOc1nc(-c2ccc(Cl)c(Cl)c2)n(-c2ccc(NC(=O)CCl)cc2)n1,IRF Lucia reporter activity,[2]; [5],0.0249
